Results as given in article PMC7758049.
Numbering of substitutions follows the chain as printed. No constants are given. Whether binding was seen depends on the method and setting. Sequences can lack the tags named with a protein.

Legend:
[1] = target: T1, GAL4BD-c-myc-DHR1-R563M, D566Y, E831K, F837L (S. cerevisiae) (UniProt Q04217); assay: two-hybrid; AD-HA-Utp14 with BD-myc-Dhr1 (wild type or mutant); growth on SD-Leu-Trp-His- with 10 mM 3AT
T1 sequence: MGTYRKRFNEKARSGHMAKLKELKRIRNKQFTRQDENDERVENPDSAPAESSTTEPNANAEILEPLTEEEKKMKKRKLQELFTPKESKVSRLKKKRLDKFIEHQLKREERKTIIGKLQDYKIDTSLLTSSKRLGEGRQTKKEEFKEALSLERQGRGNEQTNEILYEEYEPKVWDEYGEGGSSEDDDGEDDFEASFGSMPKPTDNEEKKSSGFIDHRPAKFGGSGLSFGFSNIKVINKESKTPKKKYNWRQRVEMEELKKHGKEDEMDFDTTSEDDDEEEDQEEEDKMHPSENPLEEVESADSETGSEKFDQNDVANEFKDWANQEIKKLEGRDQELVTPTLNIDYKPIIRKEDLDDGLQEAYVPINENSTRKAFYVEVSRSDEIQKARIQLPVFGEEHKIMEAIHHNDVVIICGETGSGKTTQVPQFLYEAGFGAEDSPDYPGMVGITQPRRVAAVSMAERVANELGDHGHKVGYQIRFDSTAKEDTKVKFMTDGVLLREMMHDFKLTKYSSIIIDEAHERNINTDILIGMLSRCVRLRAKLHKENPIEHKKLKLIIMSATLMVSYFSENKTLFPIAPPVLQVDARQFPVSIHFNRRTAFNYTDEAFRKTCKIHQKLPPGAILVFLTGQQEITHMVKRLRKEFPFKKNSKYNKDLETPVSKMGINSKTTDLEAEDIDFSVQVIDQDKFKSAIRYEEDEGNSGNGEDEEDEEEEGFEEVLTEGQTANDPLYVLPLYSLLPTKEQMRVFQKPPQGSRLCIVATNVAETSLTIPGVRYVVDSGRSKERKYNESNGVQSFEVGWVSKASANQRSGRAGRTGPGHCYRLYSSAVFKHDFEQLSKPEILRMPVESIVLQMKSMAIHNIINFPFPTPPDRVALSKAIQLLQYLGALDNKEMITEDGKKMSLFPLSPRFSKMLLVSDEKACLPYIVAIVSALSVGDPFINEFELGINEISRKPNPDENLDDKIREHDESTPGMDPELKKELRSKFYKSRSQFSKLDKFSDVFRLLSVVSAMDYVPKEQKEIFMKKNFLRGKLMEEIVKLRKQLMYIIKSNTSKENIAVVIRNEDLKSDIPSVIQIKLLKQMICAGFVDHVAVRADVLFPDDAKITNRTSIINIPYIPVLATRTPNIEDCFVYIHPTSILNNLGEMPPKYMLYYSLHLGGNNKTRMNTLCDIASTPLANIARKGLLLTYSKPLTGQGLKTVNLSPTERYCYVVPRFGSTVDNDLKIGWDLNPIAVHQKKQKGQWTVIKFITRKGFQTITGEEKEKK

[2] = target: T2, GAL4BD-c-myc-DHR1-H593Y, R596C, E831K (S. cerevisiae) (UniProt Q04217); assay: as above
T2 sequence: T1 sequence with M563R, Y566D, H593Y, R596C, L837F

binding [1]: no binding
binding [2]: no binding
B1: AD-HA-Utp14 (protein, UniProt Q04500 1-899)
chain: MAKKKSKSRSKSSRRVLDALQLAEREINGEFDNSSDNDKRHDARRNGTVVNLLKRSKGDTNSDEDDIDSESFEDEELNSDEALGSDDDYDILNSKFSQTIRDKKENANYQEEEDEGGYTSIDEEDLMPLSQVWDMDEKTAQSNGNDDEDASPQLKLQDTDISSESSSSEESESESEDDEEEEDPFDEISEDEEDIELNTITSKLIDETKSKAPKRLDTYGSGEANEYVLPSANAASGASGKLSLTDMMNVIDDRQVIENANLLKGKSSTYEVPLPQRIQQRHDRKAAYEISRQEVSKWNDIVQQNRRADHLIFPLNKPTEHNHASAFTRTQDVPQTELQEKVDQVLQESNLANPEKDSKFEELSTAKMTPEEMRKRTTEMRLMRELMFREERKARRLKKIKSKTYRKIKKKELMKNRELAAVSSDEDNEDHDIARAKERMTLKHKTNSKWAKDMIKHGMTNDAETREEMEEMLRQGERLKAKMLDRNSDDEEDGRVQTLSDVENEEKENIDSEALKSKLGKTGVMNMAFMKNGEAREREANKETLRQLRAVENGDDIKLFESDEEETNGENIQINKGRRIYTPGSLESNKDMNELNDHTRKENKVDESRSLENRLRAKNSGQSKNARTNAEGAIIVEEESDGEPLQDGQNNQQDEEAKDVNPWLANESDEEHTVKKQSSKVNVIDKDSSKNVKAMNKMEKAELKQKKKKKGKSNDDEDLLLTADDSTRLKIVDPYGGSDDEQGDNVFMFKQQDVIAEAFAGDDVVAEFQEEKKRVIDDEDDKEVDTTLPGWGEWAGAGSKPKNKKRKFIKKVKGVVNKDKRRDKNLQNVIINEKVNKKNLKYQSSAVPFPFENREQYERSLRMPIGQEWTSRASHQELIKPRIMTKPGQVIDPLKAPFK
